Source: paper PMC10202830, “Cingulin and paracingulin tether myosins-2 to junctions to mechanoregulate the plasma membrane” (The Journal of Cell Biology, 2023)
These are yes or no findings as the source states them, for the method shown. For part of these data: Binding seen in cells or lysates may run through a third protein. Some entries that bind do so weakly or less than the wild type. Sequences can lack the tags named with a protein.

T1: GST-CGN (1015–1203) (UniProt Q9P2M7)
T1 sequence: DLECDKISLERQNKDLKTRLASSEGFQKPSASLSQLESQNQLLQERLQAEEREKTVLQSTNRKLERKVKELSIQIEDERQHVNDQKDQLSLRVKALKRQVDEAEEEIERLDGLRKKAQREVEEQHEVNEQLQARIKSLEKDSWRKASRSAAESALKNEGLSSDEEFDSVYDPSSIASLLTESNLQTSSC

T2: GST-CGNL1 (884–1302), Rod2 bait of CGNL1 (UniProt Q0VF96)
T2 sequence: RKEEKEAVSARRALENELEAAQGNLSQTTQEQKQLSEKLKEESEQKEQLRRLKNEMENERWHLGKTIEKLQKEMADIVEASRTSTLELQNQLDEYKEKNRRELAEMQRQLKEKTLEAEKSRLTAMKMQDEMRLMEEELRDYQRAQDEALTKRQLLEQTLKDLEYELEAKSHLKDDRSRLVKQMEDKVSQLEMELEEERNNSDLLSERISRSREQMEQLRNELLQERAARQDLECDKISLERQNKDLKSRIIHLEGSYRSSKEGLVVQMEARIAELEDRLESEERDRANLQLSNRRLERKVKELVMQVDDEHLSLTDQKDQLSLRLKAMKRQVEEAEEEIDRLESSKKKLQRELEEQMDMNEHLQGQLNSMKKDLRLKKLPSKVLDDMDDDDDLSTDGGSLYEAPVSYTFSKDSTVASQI

T3: GST-hCGN (667–1203), Rod2 bait of CGN (human) (UniProt Q9P2M7)
T3 sequence: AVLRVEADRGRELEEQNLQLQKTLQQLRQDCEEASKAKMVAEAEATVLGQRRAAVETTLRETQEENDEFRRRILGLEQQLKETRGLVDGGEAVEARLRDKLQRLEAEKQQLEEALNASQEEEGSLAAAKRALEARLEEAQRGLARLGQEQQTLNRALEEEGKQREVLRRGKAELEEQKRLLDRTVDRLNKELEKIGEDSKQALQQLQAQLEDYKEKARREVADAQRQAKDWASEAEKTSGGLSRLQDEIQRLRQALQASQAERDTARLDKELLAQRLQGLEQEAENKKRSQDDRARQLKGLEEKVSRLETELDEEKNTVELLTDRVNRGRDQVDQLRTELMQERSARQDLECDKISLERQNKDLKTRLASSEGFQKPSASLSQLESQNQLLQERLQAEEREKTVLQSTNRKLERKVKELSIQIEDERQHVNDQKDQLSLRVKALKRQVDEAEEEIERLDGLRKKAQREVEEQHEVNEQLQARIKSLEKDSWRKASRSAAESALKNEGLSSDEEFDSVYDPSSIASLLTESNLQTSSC

T4: GST-CGN (1–226) (UniProt Q9P2M7)
T4 sequence: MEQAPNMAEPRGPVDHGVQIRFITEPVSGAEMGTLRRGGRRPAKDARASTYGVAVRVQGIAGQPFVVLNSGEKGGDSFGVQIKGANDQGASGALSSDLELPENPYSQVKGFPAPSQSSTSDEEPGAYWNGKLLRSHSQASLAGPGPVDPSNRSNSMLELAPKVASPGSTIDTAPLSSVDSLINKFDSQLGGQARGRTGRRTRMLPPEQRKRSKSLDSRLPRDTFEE

T5: GST-hCGNL1 (421–603) (human) (UniProt Q0VF96)
T5 sequence: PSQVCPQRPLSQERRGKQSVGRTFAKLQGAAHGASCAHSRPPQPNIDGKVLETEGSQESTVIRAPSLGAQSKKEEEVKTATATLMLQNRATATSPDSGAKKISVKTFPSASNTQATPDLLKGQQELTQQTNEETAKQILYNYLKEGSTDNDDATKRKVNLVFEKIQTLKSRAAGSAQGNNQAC

T6: GST-cNM2A (1461–1710) (canis (dog)) (UniProt Q258K2)
T6 sequence: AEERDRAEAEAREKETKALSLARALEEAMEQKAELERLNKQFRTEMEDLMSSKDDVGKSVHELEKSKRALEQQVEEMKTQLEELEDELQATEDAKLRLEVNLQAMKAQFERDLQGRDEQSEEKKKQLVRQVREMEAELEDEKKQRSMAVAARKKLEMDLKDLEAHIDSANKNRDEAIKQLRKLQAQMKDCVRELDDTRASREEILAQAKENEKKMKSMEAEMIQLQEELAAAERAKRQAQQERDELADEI

T7: GST-cNM2A (1711–1960) (canis (dog)) (UniProt Q258K2)
T7 sequence: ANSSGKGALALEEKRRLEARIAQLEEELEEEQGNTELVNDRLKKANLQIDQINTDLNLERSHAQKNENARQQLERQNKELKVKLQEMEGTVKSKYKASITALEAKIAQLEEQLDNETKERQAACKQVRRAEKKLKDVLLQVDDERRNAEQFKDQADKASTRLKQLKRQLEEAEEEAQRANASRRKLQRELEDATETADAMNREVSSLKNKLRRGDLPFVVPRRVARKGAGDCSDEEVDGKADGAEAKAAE

T8: GST-cNM2A (1461–1960) (canis (dog)) (UniProt Q258K2)
T8 sequence: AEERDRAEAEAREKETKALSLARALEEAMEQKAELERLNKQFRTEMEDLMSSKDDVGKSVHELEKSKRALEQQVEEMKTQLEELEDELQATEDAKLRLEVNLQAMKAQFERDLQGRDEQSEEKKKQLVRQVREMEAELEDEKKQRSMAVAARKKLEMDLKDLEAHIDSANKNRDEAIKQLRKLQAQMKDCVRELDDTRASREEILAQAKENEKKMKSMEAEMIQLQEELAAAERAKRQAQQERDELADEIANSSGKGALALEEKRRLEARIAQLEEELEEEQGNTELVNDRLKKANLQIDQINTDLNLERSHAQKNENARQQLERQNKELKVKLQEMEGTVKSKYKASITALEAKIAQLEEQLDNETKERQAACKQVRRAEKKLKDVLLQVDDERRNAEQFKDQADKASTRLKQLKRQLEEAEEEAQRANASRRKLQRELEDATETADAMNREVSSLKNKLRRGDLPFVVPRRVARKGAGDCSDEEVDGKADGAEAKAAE


How the values were obtained:
GST-CGN (1015–1203) = target: T1, GST-CGN (1015–1203); test: pull-down; affinity purified GST-tagged CGN or CGNL1 fragments as baits on magnetic beads; HA-tagged full-length NM2 preys in HEK lysates; IB with anti-HA (Fig. 1 C, D); only the target purified
[1] = target: T2, GST-CGNL1 (884–1302), Rod2 bait of CGNL1; test: as above
[2] = target: T3, GST-hCGN (667–1203), Rod2 bait of CGN (human); test: as above
GST-CGN (1–226) = target: T4, GST-CGN (1–226); test: as above
[3] = target: T5, GST-hCGNL1 (421–603) (human); test: as above
[4] = target: T6, GST-cNM2A (1461–1710) (canis (dog)); test: pull-down; affinity purified GST-tagged cNM2A, cNM2B, cNM2C rod fragments as baits; His-tagged full-length CGN and CGNL1 purified from baculovirus-infected insect cells as preys; IB with anti-His (Fig. 1 H–J); both purified
[5] = target: T7, GST-cNM2A (1711–1960) (canis (dog)); test: as above
[6] = target: T8, GST-cNM2A (1461–1960) (canis (dog)); test: as above

Molecule | binding (GST-CGN (1015–1203)) | binding [1] | binding [2] | binding (GST-CGN (1–226)) | binding [3] | binding [4] | binding [5] | binding [6]
HA-hNM2B (full-length nonmuscle myosin-2B heavy chain) (from UniProt P35580 1-1976) | binds | binds | binds | binds | binds weakly |  |  | 
full-length hCGN (CGN-FL-10xHis-2xStrep), purified (protein, UniProt Q9P2M7 1-1203) MEQAPNMAEPRGPVDHGVQIRFITEPVSGAEMGTLRRGGRRPAKDARASTYGVAVRVQGIAGQPFVVLNSGEKGGDSFGVQIKGANDQGASGALSSDLELPENPYSQVKGFPAPSQSSTSDEEPGAYWNGKLLRSHSQASLAGPGPVDPSNRSNSMLELAPKVASPGSTIDTAPLSSVDSLINKFDSQLGGQARGRTGRRTRMLPPEQRKRSKSLDSRLPRDTFEERERQSTNHWTSSTKYDNHVGTSKQPAQSQNLSPLSGFSRSRQTQDWVLQSFEEPRRSAQDPTMLQFKSTPDLLRDQQEAAPPGSVDHMKATIYGILREGSSESETSVRRKVSLVLEKMQPLVMVSSGSTKAVAGQGELTRKVEELQRKLDEEVKKRQKLEPSQVGLERQLEEKTEECSRLQELLERRKGEAQQSNKELQNMKRLLDQGEDLRHGLETQVMELQNKLKHVQGPEPAKEVLLKDLLETRELLEEVLEGKQRVEEQLRLRERELTALKGALKEEVASRDQEVEHVRQQYQRDTEQLRRSMQDATQDHAVLEAERQKMSALVRGLQRELEETSEETGHWQSMFQKNKEDLRATKQELLQLRMEKEEMEEELGEKIEVLQRELEQARASAGDTRQVEVLKKELLRTQEELKELQAERQSQEVAGRHRDRELEKQLAVLRVEADRGRELEEQNLQLQKTLQQLRQDCEEASKAKMVAEAEATVLGQRRAAVETTLRETQEENDEFRRRILGLEQQLKETRGLVDGGEAVEARLRDKLQRLEAEKQQLEEALNASQEEEGSLAAAKRALEARLEEAQRGLARLGQEQQTLNRALEEEGKQREVLRRGKAELEEQKRLLDRTVDRLNKELEKIGEDSKQALQQLQAQLEDYKEKARREVADAQRQAKDWASEAEKTSGGLSRLQDEIQRLRQALQASQAERDTARLDKELLAQRLQGLEQEAENKKRSQDDRARQLKGLEEKVSRLETELDEEKNTVELLTDRVNRGRDQVDQLRTELMQERSARQDLECDKISLERQNKDLKTRLASSEGFQKPSASLSQLESQNQLLQERLQAEEREKTVLQSTNRKLERKVKELSIQIEDERQHVNDQKDQLSLRVKALKRQVDEAEEEIERLDGLRKKAQREVEEQHEVNEQLQARIKSLEKDSWRKASRSAAESALKNEGLSSDEEFDSVYDPSSIASLLTESNLQTSSC |  |  |  |  |  | no binding | binds weakly | binds weakly
full-length hCGNL1 (10xHis-2xStrep), purified (protein, UniProt Q0VF96 1-1302) MELYFGEYQHVQQEYGVHLRLASDDTQKSRSSQNSKAGSYGVSIRVQGIDGHPYIVLNNTERCLAGTSFSENGPPFPPPVINNLPLHSSNGSVPKENSEELQLPENPYAQPSPIRNLKQPLLHEGKNGVLDRKDGSVKPSHLLNFQRHPELLQPYDPEKNELNLQNHQPSESNWLKTLTEEGINNKKPWTCFPKPSNSQPTSPSLEDPAKSGVTAIRLCSSVVIEDPKKQTSVCVNVQSCTKERVGEEALFTSGRPLTAHSPHAHPETKKTRPDVLPFRRQDSAGPVLDGARSRRSSSSSTTPTSANSLYRFLLDDQECAIHADNVNRHENRRYIPFLPGTGRDIDTGSIPGVDQLIEKFDQKPGLQRRGRSGKRNRINTDDRKRSRSVDSAFPFGLQGNSEYLIEFSRNLGKSSEHLLRPSQVCPQRPLSQERRGKQSVGRTFAKLQGAAHGASCAHSRPPQPNIDGKVLETEGSQESTVIRAPSLGAQSKKEEEVKTATATLMLQNRATATSPDSGAKKISVKTFPSASNTQATPDLLKGQQELTQQTNEETAKQILYNYLKEGSTDNDDATKRKVNLVFEKIQTLKSRAAGSAQGNNQACNSTSEVKDLLEQKSKLTIEVAELQRQLQLEVKNQQNIKEERERMRANLEELRSQHNEKVEENSTLQQRLEESEGELRKNLEELFQVKMEREQHQTEIRDLQDQLSEMHDELDSAKRSEDREKGALIEELLQAKQDLQDLLIAKEEQEDLLRKRERELTALKGALKEEVSSHDQEMDKLKEQYDAELQALRESVEEATKNVEVLASRSNTSEQDQAGTEMRVKLLQEENEKLQGRSEELERRVAQLQRQIEDLKGDEAKAKETLKKYEGEIRQLEEALVHARKEEKEAVSARRALENELEAAQGNLSQTTQEQKQLSEKLKEESEQKEQLRRLKNEMENERWHLGKTIEKLQKEMADIVEASRTSTLELQNQLDEYKEKNRRELAEMQRQLKEKTLEAEKSRLTAMKMQDEMRLMEEELRDYQRAQDEALTKRQLLEQTLKDLEYELEAKSHLKDDRSRLVKQMEDKVSQLEMELEEERNNSDLLSERISRSREQMEQLRNELLQERAARQDLECDKISLERQNKDLKSRIIHLEGSYRSSKEGLVVQMEARIAELEDRLESEERDRANLQLSNRRLERKVKELVMQVDDEHLSLTDQKDQLSLRLKAMKRQVEEAEEEIDRLESSKKKLQRELEEQMDMNEHLQGQLNSMKKDLRLKKLPSKVLDDMDDDDDLSTDGGSLYEAPVSYTFSKDSTVASQI |  |  |  |  |  | no binding |  | 
